Reference: PMC5464911, “SEL120-34A is a novel CDK8 inhibitor active in AML cells with high levels of serine phosphorylation of STAT1 and STAT5 transactivation domains” (Oncotarget, 2017)
Read-outs that look alike come from different tables or passages of the source.

Legend:
CDK9/CycK = CDK9/CycK (Homo sapiens, UniProt P50750); assay: CDK family single point inhibition assay; assay type: biochemical; details: Km ATP
CDK7/CycH/MAT1 = CDK7/CycH/MAT1 (Homo sapiens, UniProt P50613); assay: CDK family single point inhibition assay; assay type: biochemical; details: Km ATP
CDK1/CycE1 = CDK1/CycE1 (Homo sapiens, UniProt P06493); assay: CDK family single point inhibition assay; assay type: biochemical; details: Km ATP
CDK4/CycD1 = CDK4/CycD1 (Homo sapiens, UniProt P11802); assay: CDK family single point inhibition assay; assay type: biochemical; details: Km ATP
MOLM16 = assay: Extended viability test (AlamarBlue); assay type: cell-based; details: extended viability assay
GDM-1 = assay: Extended viability test (AlamarBlue); assay type: cell-based; details: Homo sapiens, extended viability assay
KG-1 = assay: Extended viability test (AlamarBlue); assay type: cell-based
EOL-1 = assay: Extended viability test (AlamarBlue); assay type: cell-based; details: Homo sapiens, EOL1; extended viability assay
MV4-11 = assay: Extended viability test (AlamarBlue); assay type: cell-based; details: Homo sapiens, extended viability assay
Oci-AML3 = assay: Extended viability test (AlamarBlue); assay type: cell-based; details: Homo sapiens, OCI-AML-3; extended viability assay
Kasumi-1 = assay: Extended viability test (AlamarBlue); assay type: cell-based; details: Homo sapiens, extended viability assay
MOLM13 = assay: Extended viability test (AlamarBlue); assay type: cell-based
PL-21 = assay: Extended viability test (AlamarBlue); assay type: cell-based; details: extended viability assay
SIG-M5 = assay: Extended viability test (AlamarBlue); assay type: cell-based; details: Homo sapiens, extended viability assay
CDK8 = target: T1, CDK8 (Homo sapiens, UniProt P49336); assay: Kinase capture with ATP-desthiobiotin probes in KG-1 AML cell lysates; assay type: binding; details: 1- 100 nM concentration range
T1 construct: endogenous in cells; host or cells: KG-1 AML cell lysate

STAT5 S726 and Y694 = assay: STAT phosphorylation in SET-2 cells (JAK2 V617F), WB; assay type: cell-based; details: 24 hours
Method: (B) SEL120-34A inhibits IFN-dependent phosphorylation of STAT1 S727. HCT-116 cells stimulated with IFNg for 4 h were treated with increasing doses of SEL120-34A, Flavopiridol (F) or vehicle DMSO (C) to determine changes in the phosphorylation of STAT1 S727 and Y701, as measured by WB. (*) unspecific band. (C) SEL120-34A inhibits serine phosphorylation of STAT1 S727 and STAT5 S726, whereas Ruxolitinib inhibits tyrosine phosphorylation of STAT1 Y701 and STAT5 Y694 in JAK2 V617F cells. SET-2 cells were treated with Ruxolitinib, SEL120-34A or vehicle DMSO (C) for 24 hours and protein levels of pS727, pY701 STAT1 and pS726, pY694 STAT5 were measured by WB. […]
0,1% SDS; 20 mM β-glicerol phosphate; 5 mM NaF; cat. # sc835), α-STAT5-pS726 (1:1000; Abcam, cat. # 1 mM Na3VO4) supplemented with protease inhibitors ab128896), α-STAT5-pY694 (1:1000; Cell Signaling, (Santa Cruz Biotechnology). […] Protein concentration in lysates (1:20000; Sigma, cat. # G9545) was measured by the Bradford assay and adjusted to achieve the same final concentration in each well (20-30 mRNA extraction from xenograft tissue μg protein/well). […] Prior to microarray analyses, the quality of the incubation with secondary donkey anti-rabbit antibodies RNA samples was determined using an Agilent 2100 conjugated to HRP, used at 1:4000 (Cell Signaling, Bioanalyzer (Agilent Technologies, CA, USA). […]

[1] = test system: STAT5 S726 and STAT1 S727; assay: STAT phosphorylation in KG-1 AML cells (WB); assay type: cell-based; details: KG-1 cells, 1 μM
Method: Figure 6 Efficacy of SEL120-34A in responder AML cells lines coincides with the inhibition of STAT5 S726 (A) Growth curves of responder KG-1 cell line and non-responder MOLM-13 cell line treated with increasing concentrations of SEL120-34A (B) Time-dependent effects of 1 μM SEL120-34A in KG-1 cells. Levels of STAT5 and phosphorylated STAT5 S726 and Y694 were measured by WB. (C) STAT5 S726 inhibition after the wash-out, following 1 h treatment with 1 μM SEL120-34A. (D) Effects of prolonged SEL120-34A exposures in KG-1 cells. KG-1 were treated with SEL120-34A for 1 h, 3 days and 6 days and levels of total STAT5, STAT5 S726, STAT1 S727, Caspase 3 and Cleaved Caspase 3 were measured by WB.
Mean GI50 (day 10) is shown and plotted on the graph (n=3). (D) Levels of phosphorylated STAT5 S726 and […] in AML cells from the panel C were measured by WB. Densitometry for STAT5 S726 and […] signals is shown and plotted on the graph. Cell lines from the panel D were divided into two classes based on the sensitivity to CDK8 inhibitors treatment (responders GI50<1 μM and non-responder GI50>1 μM), mean levels of STAT5 S726 (E) or STAT1 S727 (F) in selected cell lines measured by densitometry were presented on scatter plots. Differences between responder and non-responder were assessed by t-tests (p value is shown). […]

[2] = test system: STAT1 S727 and STAT5 S726; assay: Pharmacodynamics in Colo-205 CRC xenograft tissues (WB); assay type: in vivo, mice; details: 60mg/kg oral BID 3 days, 16 hours after the last dose
Method: (§1) Water was used as a vehicle. Levels of phosphorylated STAT1 S727, Y701 and STAT5 S726 were measured by WB. Floating bars plots indicate relative inhibition of STAT1 S727, measured by densitometry of WB signals (left) and corresponding concentrations of SEL120-34A detected in plasma of treated animals, measured by LC-MS (right). Mean, min and max values are presented. (B) Heat map showing changes in expression levels of the top 30 differentially expressed genes (based on adj. p-values, Z-scores are shown) in Colo-205 tumors, after treatment with 30 mg/kg of SEL120-34A at 4h time point (C) Validation of microarray data by qRT-PCR for selected IFN-regulated genes. Animals were administered with 5, 15, 30 and 60 mg/kg BID for 3 days and Colo-205 tumor samples were collected at 4 and 16 hours after the last compound dose. Total RNA was extracted and subjected to qRT-PCR measurements. mRNA expressions of measured transcripts were normalized to RPLP0 expression (n=3;±SD). Differences between mean cDNA levels for control and a given SEL120-34A dose at the indicated time point were assessed by t-tests. A p-value of ≤ 0.05 (*) was considered significant. (D) GSEA running plots for expression changes in Colo-205 xenografts after SEL120-34A treatment. […]

[3] = Plasma concentration in Colo-205 xenografted animals (LC-MS); assay type: in vivo, mice; details: mouse, 60mg/kg oral BID 3 days, 16 hour time point
Method: as §1

Sequence of UniProt P11802 (P11802 whole entry): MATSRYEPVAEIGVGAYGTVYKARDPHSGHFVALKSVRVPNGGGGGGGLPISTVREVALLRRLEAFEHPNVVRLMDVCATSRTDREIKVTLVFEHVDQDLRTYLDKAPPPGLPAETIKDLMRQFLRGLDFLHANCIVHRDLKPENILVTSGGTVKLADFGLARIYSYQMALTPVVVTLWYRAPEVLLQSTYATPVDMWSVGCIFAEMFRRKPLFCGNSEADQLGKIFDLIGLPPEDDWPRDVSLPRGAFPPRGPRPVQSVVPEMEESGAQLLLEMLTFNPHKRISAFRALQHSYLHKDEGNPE
Sequence of UniProt P11802 (P24385 whole entry partner): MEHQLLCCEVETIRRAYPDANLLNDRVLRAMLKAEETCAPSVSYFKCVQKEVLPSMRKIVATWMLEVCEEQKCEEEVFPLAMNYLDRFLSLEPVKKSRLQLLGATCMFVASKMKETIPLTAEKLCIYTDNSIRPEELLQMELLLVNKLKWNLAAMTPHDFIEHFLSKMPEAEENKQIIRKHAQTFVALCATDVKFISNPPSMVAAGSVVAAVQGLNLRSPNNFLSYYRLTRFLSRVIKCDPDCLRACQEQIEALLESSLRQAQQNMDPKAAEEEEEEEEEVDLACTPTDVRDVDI
Sequence of UniProt P50750 (P50750 whole entry): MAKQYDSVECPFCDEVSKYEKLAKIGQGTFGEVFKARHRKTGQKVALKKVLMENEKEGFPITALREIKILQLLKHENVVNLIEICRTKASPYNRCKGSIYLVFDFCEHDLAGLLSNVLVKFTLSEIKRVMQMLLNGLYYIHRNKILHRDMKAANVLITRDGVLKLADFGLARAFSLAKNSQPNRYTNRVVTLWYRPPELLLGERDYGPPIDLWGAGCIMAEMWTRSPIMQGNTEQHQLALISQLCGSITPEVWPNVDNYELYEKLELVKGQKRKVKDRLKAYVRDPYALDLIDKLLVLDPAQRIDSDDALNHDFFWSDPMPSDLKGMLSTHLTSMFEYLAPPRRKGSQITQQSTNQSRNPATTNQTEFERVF
Sequence of UniProt P50750 (O75909 whole entry partner): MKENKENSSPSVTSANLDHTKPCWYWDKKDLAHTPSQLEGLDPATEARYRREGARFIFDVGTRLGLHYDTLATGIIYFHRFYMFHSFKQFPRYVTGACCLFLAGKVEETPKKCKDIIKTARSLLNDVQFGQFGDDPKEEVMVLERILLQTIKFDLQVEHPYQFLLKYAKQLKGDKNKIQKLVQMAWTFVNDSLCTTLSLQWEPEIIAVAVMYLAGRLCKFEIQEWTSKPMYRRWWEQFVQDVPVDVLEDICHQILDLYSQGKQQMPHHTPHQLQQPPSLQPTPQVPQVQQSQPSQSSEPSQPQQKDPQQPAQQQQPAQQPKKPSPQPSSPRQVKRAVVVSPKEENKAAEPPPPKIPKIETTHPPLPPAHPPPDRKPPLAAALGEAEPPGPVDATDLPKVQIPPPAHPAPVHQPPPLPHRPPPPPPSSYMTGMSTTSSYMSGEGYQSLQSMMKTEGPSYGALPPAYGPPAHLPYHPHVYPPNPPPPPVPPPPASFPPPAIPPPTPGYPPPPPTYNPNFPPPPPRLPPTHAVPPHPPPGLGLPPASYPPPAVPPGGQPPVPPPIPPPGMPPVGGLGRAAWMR
Sequence of UniProt P50613 (P50613 whole entry): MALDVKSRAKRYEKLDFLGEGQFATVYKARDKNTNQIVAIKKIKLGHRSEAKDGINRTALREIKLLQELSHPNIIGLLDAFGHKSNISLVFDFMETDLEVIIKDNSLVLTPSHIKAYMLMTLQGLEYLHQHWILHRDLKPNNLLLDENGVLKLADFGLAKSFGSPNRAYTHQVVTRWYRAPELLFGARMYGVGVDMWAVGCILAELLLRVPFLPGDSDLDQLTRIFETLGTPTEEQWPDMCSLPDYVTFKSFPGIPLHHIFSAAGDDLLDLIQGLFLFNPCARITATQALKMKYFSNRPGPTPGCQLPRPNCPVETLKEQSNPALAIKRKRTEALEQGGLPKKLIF
Sequence of UniProt P50613 (P51946 whole entry partner): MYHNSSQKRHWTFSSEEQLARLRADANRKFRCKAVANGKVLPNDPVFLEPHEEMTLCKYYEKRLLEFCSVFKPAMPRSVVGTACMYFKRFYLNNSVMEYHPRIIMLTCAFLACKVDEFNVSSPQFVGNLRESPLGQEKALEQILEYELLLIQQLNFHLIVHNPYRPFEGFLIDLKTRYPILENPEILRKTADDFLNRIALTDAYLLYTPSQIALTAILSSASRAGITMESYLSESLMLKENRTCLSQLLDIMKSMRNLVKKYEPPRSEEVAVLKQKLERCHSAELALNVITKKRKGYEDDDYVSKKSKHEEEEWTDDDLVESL
Sequence of UniProt P50613 (P51948 whole entry partner): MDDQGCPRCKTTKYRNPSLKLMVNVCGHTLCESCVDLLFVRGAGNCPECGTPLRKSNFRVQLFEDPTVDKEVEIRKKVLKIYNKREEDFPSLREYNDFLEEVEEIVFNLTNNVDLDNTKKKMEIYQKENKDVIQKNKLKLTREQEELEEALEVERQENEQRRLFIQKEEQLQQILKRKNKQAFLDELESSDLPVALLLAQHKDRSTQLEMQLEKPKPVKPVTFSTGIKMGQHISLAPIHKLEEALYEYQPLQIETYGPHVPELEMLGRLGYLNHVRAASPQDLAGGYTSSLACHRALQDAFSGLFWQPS
Sequence of UniProt P06493 (P06493 whole entry): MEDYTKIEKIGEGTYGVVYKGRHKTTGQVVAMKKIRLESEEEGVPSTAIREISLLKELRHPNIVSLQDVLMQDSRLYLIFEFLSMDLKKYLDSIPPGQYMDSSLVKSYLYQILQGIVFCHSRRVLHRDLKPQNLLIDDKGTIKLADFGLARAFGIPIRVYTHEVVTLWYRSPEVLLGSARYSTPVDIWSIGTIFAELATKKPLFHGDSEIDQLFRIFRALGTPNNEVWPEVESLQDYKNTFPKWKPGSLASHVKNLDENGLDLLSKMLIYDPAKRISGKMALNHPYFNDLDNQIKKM
Sequence of UniProt P06493 (P24864 whole entry partner): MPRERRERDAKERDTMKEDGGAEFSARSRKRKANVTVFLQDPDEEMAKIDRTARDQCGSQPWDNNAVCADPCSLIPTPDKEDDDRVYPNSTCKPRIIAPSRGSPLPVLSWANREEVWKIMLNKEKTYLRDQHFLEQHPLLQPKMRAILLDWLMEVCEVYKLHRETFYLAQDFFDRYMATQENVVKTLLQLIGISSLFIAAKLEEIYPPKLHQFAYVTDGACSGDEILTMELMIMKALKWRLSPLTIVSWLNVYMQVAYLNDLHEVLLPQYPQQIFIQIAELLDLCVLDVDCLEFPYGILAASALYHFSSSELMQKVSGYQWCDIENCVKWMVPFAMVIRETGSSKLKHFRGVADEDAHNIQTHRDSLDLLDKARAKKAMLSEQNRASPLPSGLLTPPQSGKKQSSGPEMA
T1 sequence (P49336 whole entry): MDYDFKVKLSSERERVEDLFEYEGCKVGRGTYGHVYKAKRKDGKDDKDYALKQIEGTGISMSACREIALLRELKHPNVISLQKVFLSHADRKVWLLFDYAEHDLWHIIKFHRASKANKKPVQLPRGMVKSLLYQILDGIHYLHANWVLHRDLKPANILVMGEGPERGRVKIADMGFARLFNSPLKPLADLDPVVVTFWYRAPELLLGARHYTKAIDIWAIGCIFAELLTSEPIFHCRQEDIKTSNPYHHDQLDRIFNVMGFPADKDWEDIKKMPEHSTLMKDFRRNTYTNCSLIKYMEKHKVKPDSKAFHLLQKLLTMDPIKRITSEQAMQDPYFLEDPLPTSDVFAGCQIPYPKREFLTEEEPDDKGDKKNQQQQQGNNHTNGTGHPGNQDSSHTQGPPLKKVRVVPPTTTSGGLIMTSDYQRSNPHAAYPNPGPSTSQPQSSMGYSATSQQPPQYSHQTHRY
T1 sequence (P24863 whole entry partner): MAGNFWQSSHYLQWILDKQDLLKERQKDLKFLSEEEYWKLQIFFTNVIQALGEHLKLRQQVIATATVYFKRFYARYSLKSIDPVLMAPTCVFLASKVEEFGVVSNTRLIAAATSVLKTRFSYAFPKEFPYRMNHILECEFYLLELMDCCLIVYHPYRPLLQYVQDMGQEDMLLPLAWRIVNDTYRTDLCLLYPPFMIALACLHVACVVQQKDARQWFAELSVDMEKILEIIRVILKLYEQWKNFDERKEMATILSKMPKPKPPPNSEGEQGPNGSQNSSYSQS

With `Cc1c(Br)c(Br)c2c3c1nc(N1CCNCC1)n3CCC2` [SEL120-34A] the remaining activity at 1 µM (CDK9/CycK; mean, read-out: % remaining activity @1μM CDK9/CycK Mean) was 41%, the remaining activity at 1 µM (CDK9/CycK; repeat 1, read-out: % remaining activity @1μM CDK9/CycK repeat 1) was 45% and the remaining activity at 1 µM (CDK9/CycK; repeat 2, read-out: % remaining activity @1μM CDK9/CycK repeat 2) was 38%. The remaining activity at 1 µM (CDK7/CycH/MAT1; mean, read-out: % remaining activity @1μM CDK7/CycH/MAT1 Mean) was 83%, the remaining activity at 1 µM (CDK7/CycH/MAT1; repeat 1, read-out: % remaining activity @1μM CDK7/CycH/MAT1 repeat 1) was 86% and the remaining activity at 1 µM (CDK7/CycH/MAT1; repeat 2, read-out: % remaining activity @1μM CDK7/CycH/MAT1 repeat 2) was 79%. For the same compound, the remaining activity at 1 µM (CDK1/CycE1; mean, read-out: % remaining activity @1μM CDK1/CycE1 Mean) was 88%, the remaining activity at 1 µM (CDK1/CycE1; repeat 1, read-out: % remaining activity @1μM CDK1/CycE1 repeat 1) was 90% and the remaining activity at 1 µM (CDK1/CycE1; repeat 2, read-out: % remaining activity @1μM CDK1/CycE1 repeat 2) was 86%. The remaining activity at 1 µM (CDK4/CycD1; mean, read-out: % remaining activity @1μM CDK4/CycD1 Mean) was 94%, the remaining activity at 1 µM (CDK4/CycD1; repeat 1, read-out: % remaining activity @1μM CDK4/CycD1 repeat 1) was 89% and the remaining activity at 1 µM (CDK4/CycD1; repeat 2, read-out: % remaining activity @1μM CDK4/CycD1 repeat 2) was 99%. For the same compound, the GI50 (MOLM16) was 340 nM, the GI50 (GDM-1) was 60 nM and the GI50 (KG-1; Homo sapiens, KG-1, extended viability assay) was 160 nM. The “sensitivity of KG-1 AML cells to prolonged treatment” value (KG-1; STAT5 S726 positive cells, growth curves) was “sensitive”, the GI50 (EOL-1) was 1100 nM and the GI50 (MV4-11) was 250 nM. For the same compound, the GI50 (Oci-AML3) was 400 nM, the GI50 (Kasumi-1) was 1100 nM and the GI50 (MOLM13; Homo sapiens, MOLM-13, extended viability assay) was 2500 nM. The “sensitivity of MOLM13 AML cells to prolonged treatment” value (MOLM13; S726 negative cells, growth curves) was “resistant”, the GI50 (PL-21) was 1000 nM and the GI50 (SIG-M5) was 1100 nM. The “binding to CDK8 in KG-1 AML cell lysates, competition with ATP-analogue probes” value (CDK8) was “effectively bind to CDK8 in a dose-dependent manner”, the “STAT5 S726 phosphorylation” value (STAT5 S726 and Y694) was “exhibited activity” and the “STAT5 Y694 phosphorylation” value (STAT5 S726 and Y694) was “but not Y694”. The “time to maximal inhibition of STAT5 S726” value [1] was 1 h, the “inhibition of STAT1 S727 and STAT5 S726 in Colo-205 xenograft tissues” value [2] was “Nearly complete inhibitions” and the concentration at 16 h [3] was > 700 ng/mL.
